# The list shows a part of the results.
# Legend:
# HSkMC = human skeletal muscle cells; experiment: cytotoxicity call (relative viability < 0.9); conditions: 10 µM
# HepG2 = experiment: cytotoxicity call (relative viability < 0.9); conditions: 10 µM
# S. aureus RN4220 = experiment: growth inhibition call (relative growth <= 0.2); conditions: 50 µM
SMILES,cytotoxicity call (HSkMC),cytotoxicity call (HepG2),growth inhibition call (S. aureus RN4220)
Cn1cnc(S(=O)(=O)N[C@H]2C=C[C@H](CC(=O)Nc3ccccc3)O[C@@H]2CO)c1,inactive,inactive,inactive
C[C@@H]1CCCCO[C@@H](CN(C)Cc2ccc3c(c2)OCO3)[C@H](C)CN([C@@H](C)CO)C(=O)c2cc(NS(=O)(=O)c3ccc(Cl)cc3)ccc2O1,inactive,inactive,inactive
COCC(=O)N1C[C@@H](C)[C@@H](OC)CN(C)C(=O)c2ccc(NC(=O)c3ccc(F)cc3)cc2OC[C@@H]1C,inactive,inactive,inactive
C[C@@H]1CN([C@H](C)CO)C(=O)c2cccc(NC(=O)C3CC3)c2O[C@H]1CN(C)S(=O)(=O)c1cccs1,inactive,inactive,inactive
C[C@@H]1CCCCO[C@H](CN(C)C(=O)NC2CCCCC2)[C@H](C)CN([C@H](C)CO)C(=O)c2cc(NC(=O)Nc3ccc(C(F)(F)F)cc3)ccc2O1,active,inactive,inactive
C[C@@H]1CN([C@H](C)CO)C(=O)Cc2cc(NS(=O)(=O)c3cn(C)cn3)ccc2O[C@H]1CN(C)C,inactive,inactive,inactive
O=C(C[C@H]1CC[C@H](NC(=O)CN2CCOCC2)[C@@H](CO)O1)NCc1cccc(F)c1,inactive,inactive,inactive
COc1ccc2c3c(n(c2c1)C)[C@@H](CO)N(C[C@]13CCN(CC1)C(=O)Nc1ccc(cc1)F)C(=O)c1ccc(cc1)F,inactive,inactive,inactive
C[C@H]1CN([C@@H](C)CO)S(=O)(=O)c2ccc(Br)cc2O[C@@H]1CN(C)CC1CCOCC1,inactive,inactive,inactive
C[C@@H]1CCCCO[C@@H](CN(C)Cc2ccc(C(=O)O)cc2)[C@H](C)CN([C@H](C)CO)C(=O)c2cc(NS(=O)(=O)c3ccc(Cl)cc3)ccc2O1,inactive,inactive,inactive
C[C@H]1CN([C@@H](C)CO)C(=O)c2cccc(NS(=O)(=O)c3ccc(Cl)cc3)c2O[C@H]1CN(C)S(=O)(=O)c1cn(C)cn1,inactive,inactive,inactive
C[C@@H]1CCCCO[C@H](CN(C)C(=O)Nc2ccc(C(F)(F)F)cc2)[C@H](C)CN([C@@H](C)CO)C(=O)c2cc(NC(=O)c3ccncc3)ccc2O1,inactive,inactive,inactive
O=C(C[C@@H]1CC=CCC[C@H](Cc2ccc(F)cc2)C(=O)OC[C@H](Cc2c[nH]c3ccccc23)NC1=O)N[C@H](CO)Cc1ccccc1,inactive,active,inactive
COc1cc(N2CCO[C@]3(COCCN(CCN(C)C)C3)C2)ncn1,inactive,inactive,inactive
O=C(CS)NCCCCCCNC(=O)[C@@H]1C[C@@H]2C(=O)N[C@@H](Cc3ccccc3)C(=O)N2[C@@H]1c1ccc(O)cc1,inactive,inactive,inactive
COc1ccc(NC(=O)Nc2ccc3c(c2)[C@@H]2C[C@@H](CC(=O)N4CCN(C)CC4)O[C@H](CO)[C@@H]2O3)cc1,inactive,inactive,inactive
O=C(NO)c1ccc(C(=O)N/N=C/[C@@H](O)[C@@H](O)[C@H](O)[C@H](O)CO)cc1,inactive,inactive,inactive
CO[C@@H]1CN(C)C(=O)c2ccc(NS(=O)(=O)CC(F)(F)F)cc2OC[C@@H](C)N(C(=O)c2ccc3c(c2)OCO3)C[C@@H]1C,inactive,inactive,inactive
COc1ccc(S(=O)(=O)N(C)C[C@@H]2Oc3ccc(NS(=O)(=O)c4ccc(F)cc4)cc3CC(=O)N([C@@H](C)CO)C[C@@H]2C)cc1,inactive,inactive,inactive
Cc1ccc(C(=O)Nc2ccc(Nc3ccccc3)cc2)c(C)c1,inactive,inactive,inactive
COc1ccc(CN(C)C[C@@H]2OCCCC[C@@H](C)Oc3ccc(NC(=O)NC(C)C)cc3C(=O)N([C@@H](C)CO)C[C@@H]2C)cc1,inactive,inactive,inactive
Cc1ccc(C(=O)CCNc2ccc3c(c2)oc2ccccc23)o1,inactive,inactive,inactive

SMILES,cytotoxicity call (HSkMC),cytotoxicity call (HepG2),growth inhibition call (S. aureus RN4220)
C[C@@H]1CCCCO[C@@H](CN(C)C(=O)Nc2ccc(C(F)(F)F)cc2)[C@H](C)CN([C@H](C)CO)C(=O)c2cc(NC(=O)Nc3ccccc3)ccc2O1,inactive,inactive,inactive
C[C@@H]1CCCCO[C@H](CN(C)C(=O)c2ccccc2)[C@@H](C)CN([C@@H](C)CO)C(=O)c2cc(NS(=O)(=O)c3cccs3)ccc2O1,inactive,inactive,inactive
CCOC(=O)n1ccn(C)c1=S,inactive,inactive,inactive
C[C@@H]1CN([C@H](C)CO)C(=O)CCCn2cc(nn2)CO[C@@H]1CN(C)S(=O)(=O)c1ccc(C#N)cc1,inactive,inactive,inactive
C=C(CC)ON=c1[nH]c(=O)c2ncn([C@@H]3O[C@H]4CO[PH](O)(O)O[C@H]4[C@H]3OC(=O)CCC)c2[nH]1,inactive,inactive,inactive
COc1ccc(NC(=O)Nc2ccc3c(c2)C(=O)N([C@H](C)CO)C[C@H](C)[C@@H](CN(C)C(=O)NC2CCCCC2)OCCCC[C@H](C)O3)cc1,inactive,inactive,inactive
COc1ccc(S(=O)(=O)N2C[C@@H](O)COC[C@@H]3O[C@@H](CC(=O)NCCN4CCCCC4)CC[C@H]32)cc1,inactive,inactive,inactive
C[C@H](CO)N1C[C@H](C)[C@@H](CN(C)S(=O)(=O)c2ccc(Cl)cc2)OCCCC[C@H](C)Oc2ccc(NC(=O)C3CCCCC3)cc2C1=O,inactive,inactive,inactive
C[C@H](CO)N1C[C@H](C)[C@H](CN(C)C(=O)Nc2cccc3ccccc23)Oc2ccc(NC(=O)Nc3ccc4c(c3)OCO4)cc2C1=O,inactive,inactive,inactive
COc1ccc2c3c([nH]c2c1)[C@H](CO)N(C[C@]13CN(Cc2ccccc2Cl)C1)S(=O)(=O)c1cn(cn1)C,inactive,inactive,inactive
C[C@@H]1CN([C@H](C)CO)C(=O)Cc2cc(NC(=O)Nc3ccc4c(c3)OCO4)ccc2O[C@@H]1CN(C)Cc1ccc(Cl)c(Cl)c1,active,inactive,inactive
C[C@@H]1CN([C@@H](C)CO)S(=O)(=O)c2ccc(-c3cccnc3)cc2O[C@H]1CN(C)C(=O)NC1CCCCC1,inactive,inactive,inactive
C[C@@H]1CCCCO[C@H](CN(C)CC2CC2)[C@H](C)CN([C@H](C)CO)C(=O)c2cc(NC(=O)Nc3ccc(C(F)(F)F)cc3)ccc2O1,active,active,active
Cc1noc(C)c1S(=O)(=O)N(C)C[C@H]1Oc2ccc(NS(C)(=O)=O)cc2CC(=O)N([C@H](C)CO)C[C@@H]1C,inactive,inactive,inactive
Cc1ccc(S(=O)(=O)N2C[C@@H](O)COC[C@@H]3O[C@H](CC(=O)N[C@@H]4CCN(Cc5ccccc5)C4)CC[C@H]32)cc1,inactive,inactive,inactive
C[C@@H]1CN([C@@H](C)CO)C(=O)c2c(c3ccccc3n2C)-c2ccccc2CO[C@H]1CN(C)C(=O)Nc1cccc(C(F)(F)F)c1,inactive,active,inactive
C[C@@H]1CN([C@H](C)CO)C(=O)c2cc(NS(=O)(=O)c3ccc(Cl)cc3)ccc2O[C@@H]1CN(C)C(=O)Nc1ccc(C(F)(F)F)cc1,inactive,active,inactive
CN1C(=O)C[C@H](Nc2ccc(N(C)C)cc2)C1=O,inactive,inactive,inactive
Cc1noc(C)c1NC(=O)Nc1ccc2c(c1)CC(=O)N([C@H](C)CO)C[C@@H](C)[C@@H](CN(C)C(=O)Nc1ccc(C(F)(F)F)cc1)O2,inactive,inactive,inactive
COCC(=O)Nc1ccc2c(c1)C(=O)N(C)C[C@H](OC)[C@@H](C)CN(Cc1ccccc1F)[C@@H](C)CO2,inactive,inactive,inactive
C[C@H](CO)N1C[C@H](C)[C@H](CN(C)C(=O)NC2CCCC2)Oc2cc(-c3cncnc3)ccc2S1(=O)=O,inactive,inactive,inactive
Cc1ccc(C)c(S(=O)(=O)N2[C@@H]3CC[C@@H](C3)[C@H]2c2nc3cccc(OCc4ccc(F)cc4)c3[nH]2)c1,inactive,inactive,inactive
